# According to the supplement of paper PMC8728848:
# Some of the results follow.
# B1: CVN-E41G (protein)
# chain: MHHHHHHENLYFQSGNFSQACYNSAIQGSVLTSTCIRTNGGYNTSSIDLNSVIGNVDGSLKWQGSNFIETCRNTQLAGSSELAAECKTRAQQFVSTKINLDDHIAAIDGTLKYE
# Tests used:
# Assay in all cases: glycan array binding signal (z-score within array); higher = stronger binding
# Conditions in all cases: glycan notation: IUPAC condensed, linker removed; mutation: E41G
# [1] = target: Neu5Ac(a2-6)GlcNAc(b1-4)GlcNAc(b1-4)GlcNAc
# In short: (§1)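 Arrays were curated from the Consortium for Functional Glycomics database, 3228 in total, and kept only where the protein sequence was available. Binding is expressed as a within-array Z-score. This score was averaged across arrays of the same protein sequence at different concentrations or buffers and across linkers, and negative values can be read as non-binding.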
# [2] = target: Neu5Ac(a2-8)Neu5Ac
# In short: as §1
# [3] = target: Neu5Ac(a2-8)Neu5Ac(a2-3)Gal(b1-3)GalNAc(b1-4)[Neu5Ac(a2-3)]Gal(b1-4)Glc
# In short: as §1
# [4] = target: Neu5Ac(a2-8)Neu5Ac(a2-3)Gal(b1-3)GalNAc(b1-4)[Neu5Ac(a2-8)Neu5Ac(a2-3)]Gal(b1-4)Glc
# In short: as §1
# [5] = target: Neu5Ac(a2-8)Neu5Ac(a2-3)Gal(b1-4)Glc
# In short: as §1
# [6] = target: Neu5Ac(a2-8)Neu5Ac(a2-3)Gal(b1-4)GlcNAc
# In short: as §1
# [7] = target: Neu5Ac(a2-8)Neu5Ac(a2-3)[Gal(b1-3)GalNAc(b1-4)]Gal(b1-4)Glc
# In short: as §1
# [8] = target: Neu5Ac(a2-8)Neu5Ac(a2-3)[GalNAc(b1-4)]Gal(b1-4)Glc
# In short: as §1
# [9] = target: Neu5Ac(a2-8)Neu5Ac(a2-8)Neu5Ac
# In short: as §1
# [10] = target: Neu5Ac(a2-8)Neu5Ac(a2-8)Neu5Ac(a2-3)Gal(b1-4)Glc
# In short: as §1
# [11] = target: Neu5Ac(a2-8)Neu5Ac(a2-8)Neu5Ac(a2-3)[Gal(b1-3)GalNAc(b1-4)]Gal(b1-4)Glc
# In short: as §1
# [12] = target: Neu5Ac(a2-8)Neu5Ac(a2-8)Neu5Ac(a2-3)[GalNAc(b1-4)]Gal(b1-4)Glc
# In short: as §1
# [13] = target: Neu5Ac(a2-8)Neu5Ac(a2-8)Neu5Ac(a2-8)Neu5Ac(a2-3)[GalNAc(b1-4)]Gal(b1-4)Glc
# In short: as §1
# [14] = target: Neu5Ac(a2-8)Neu5Gc(a2-3)Gal(b1-4)GlcNAc
# In short: as §1
# [15] = target: Neu5Ac(b2-6)Gal(b1-4)GlcNAc
# In short: as §1
# [16] = target: Neu5Ac(b2-6)GalNAc
# In short: as §1
# [17] = target: Neu5Ac9Ac(a2-3)Gal(b1-3)GlcNAc
# In short: as §1
# [18] = target: Neu5Ac9Ac(a2-3)Gal(b1-4)GlcNAc
# In short: as §1
# [19] = target: Neu5Ac9Ac(a2-6)Gal(b1-4)GlcNAc
# In short: as §1
# [20] = target: Neu5Gc(a2-3)Gal(b1-3)GlcNAc
# In short: as §1
# [21] = target: Neu5Gc(a2-3)Gal(b1-3)[Fuc(a1-4)]GlcNAc
# In short: as §1
# [22] = target: Neu5Gc(a2-3)Gal(b1-4)Glc
# In short: as §1
# [23] = target: Neu5Gc(a2-3)Gal(b1-4)GlcNAc
# In short: as §1
# [24] = target: Neu5Gc(a2-3)Gal(b1-4)GlcNAc(b1-3)Gal(b1-4)GlcNAc(b1-2)Man(a1-3)[Neu5Gc(a2-3)Gal(b1-4)GlcNAc(b1-3)Gal(b1-4)GlcNAc(b1-2)Man(a1-6)]Man(b1-4)GlcNAc(b1-4)GlcNAc
# In short: as §1
# [25] = target: Neu5Gc(a2-3)Gal(b1-4)[Fuc(a1-3)]GlcNAc
# In short: as §1
# [26] = target: Neu5Gc(a2-6)Gal(b1-4)GlcNAc
# In short: as §1
# [27] = target: Neu5Gc(a2-6)GalNAc
# In short: as §1
# [28] = target: Neu5Gc(a2-8)Neu5Ac(a2-3)Gal(b1-4)GlcNAc
# In short: as §1
# [29] = target: Neu5Gc(a2-8)Neu5Gc(a2-3)Gal(b1-4)GlcNAc
# In short: as §1
# [30] = target: Neu5Gc(a2-8)Neu5Gc(a2-3)Gal(b1-4)GlcNAc(b1-3)Gal(b1-4)GlcNAc
# In short: as §1
# [31] = target: Neu5Gc(a2-8)Neu5Gc(a2-6)Gal(b1-4)GlcNAc
# In short: as §1
# [32] = target: Neu5Gc(b2-6)Gal(b1-4)GlcNAc
# In short: as §1
binder,measurement,setting,value
B1,glycan array binding signal (z-score),[1],-0.115
same,glycan array binding signal (z-score),[2],-0.132
same,glycan array binding signal (z-score),[3],-0.157
same,glycan array binding signal (z-score),[4],-0.158
same,glycan array binding signal (z-score),[5],-0.181
same,glycan array binding signal (z-score),[6],-0.181
same,glycan array binding signal (z-score),[7],-0.153
same,glycan array binding signal (z-score),[8],-0.161
same,glycan array binding signal (z-score),[9],-0.158
same,glycan array binding signal (z-score),[10],-0.173
same,glycan array binding signal (z-score),[11],-0.003
same,glycan array binding signal (z-score),[12],-0.138
same,glycan array binding signal (z-score),[13],-0.152
same,glycan array binding signal (z-score),[14],-0.171
same,glycan array binding signal (z-score),[15],-0.174
same,glycan array binding signal (z-score),[16],-0.196
same,glycan array binding signal (z-score),[17],-0.182
same,glycan array binding signal (z-score),[18],-0.175
same,glycan array binding signal (z-score),[19],-0.152
same,glycan array binding signal (z-score),[20],-0.176
same,glycan array binding signal (z-score),[21],-0.145
same,glycan array binding signal (z-score),[22],-0.133
same,glycan array binding signal (z-score),[23],-0.171
same,glycan array binding signal (z-score),[24],-0.176
same,glycan array binding signal (z-score),[25],-0.169
same,glycan array binding signal (z-score),[26],-0.172
same,glycan array binding signal (z-score),[27],-0.133
same,glycan array binding signal (z-score),[28],-0.159
same,glycan array binding signal (z-score),[29],-0.178
same,glycan array binding signal (z-score),[30],-0.179
same,glycan array binding signal (z-score),[31],-0.166
same,glycan array binding signal (z-score),[32],-0.155
